About 1,700 (3.3%) of roughly 52,000 compounds were called active. No stated cut-off is given here; in the data, active means survival mostly below about 52% (no sharp cut-off); inactive means mostly above about 56%. This is one part of the list.

The test system of this assay is Wild type. Briefly: S. aureus survival, RN4220 and DeltatarO strains – OD600, teichoic acid synthesis inhibitors, primary screen (AID 463173). The note with it: S. aureus RN4220 wild type/DeltatarO growth, OD600, 18 h, hits give low values, screened at 18.75 µg/mL (by protocol).
On to `CCOC(=O)N1CCC(NC(=O)c2ccc3c(c2)N(Cc2ccc(F)cc2)C(=O)c2ccccc2S3=O)CC1` (configuration not stated), for which the survival was inactive: 91%. As to `COc1ccc(CCNC(=O)c2nc(SCc3ccc(F)cc3)ncc2Cl)cc1OC`, the survival was inactive: 86%. As to `Cc1ccc(CCNC(=O)C(C)n2nc(C)c3c(C)n(-c4ccc(C)cc4)nc3c2=O)cc1` (configuration not stated), the survival is inactive: 75%. `CCCCCCC(=O)Nc1cc2nc3c(nc2cc1C)c(=O)n(C)c(=O)n3C`: the survival was inactive: 135%. On to `CCc1ccc(C2CC(=O)c3c([nH]c(C(=O)OC4CCCCCC4)c3C)C2)cc1` (configuration not stated), for which the survival was inactive: 127%.

On to `COc1ccc(NC(=O)CN2CCN(C3CCCCC3)C(=O)C2=O)cc1`, for which the survival was inactive: 135%. With `Cc1ccc(CNC(=O)c2cc(=O)c3cc(C)c(C)cc3o2)cc1`, the survival was inactive: 86%. On to `COc1ccc(CNC(=O)C2CCCN(C(=O)c3cnn(-c4ccc(F)cc4)c3-n3cccc3)C2)cc1` (configuration not stated), for which the survival is inactive: 75%. With `CCOC(=O)c1c(-c2ccc(Br)cc2)csc1NC(=O)c1ccc(C(C)(C)C)cc1`, the survival was inactive: 65%.

With `COc1ccc(NC(=O)c2cc(=O)c3cc(C)cc(C)c3o2)cc1`, the survival is inactive: 82%. Under `Cc1nc2c(-c3ccccc3)c(C)[nH]n2c(=O)c1Cc1ccc(Br)cc1` stands active: -5%; under `CCOc1cccc2sc(NC(=O)c3ccc(S(=O)(=O)N4CCCCC4)cc3)nc12`, inactive: 75%; under `O=C(NCCS(=O)(=O)N1CCN(c2ccc(F)cc2)CC1)c1ccccc1Br`, inactive: 68%. In the case of `CCOc1ccc(CC(=O)NCCc2sc(-c3cccc(F)c3)nc2C)cc1` it was inactive: 58%; in that of `CC(=O)Nc1cccc(NC(=O)CSc2cn(CC(=O)N3CCCC3)c3ccccc23)c1`, inactive: 95%. Take `CC(CNc1nc2ccccc2c2nc(-c3ccccc3)nn12)c1ccccc1` (configuration not stated): the survival was inactive: 118%. As to `O=C(C1=C(O)C(=O)N(Cc2ccccc2)C1c1ccco1)c1ccco1` (configuration not stated), the survival is inactive: 103%.

Regarding `CCCS(=O)(=O)c1nc(S(=O)(=O)c2ccc(C)cc2)c(NCC(C)C)s1`, the survival was inactive: 92%. Take `CC1CCN(S(=O)(=O)c2ccc3c(ccc(=O)n3CC(=O)NCc3ccccc3)c2)CC1`: the survival is inactive: 22%. Consider `Cc1ccc(CCNC(=O)c2oc(=O)c3ccccc3c2-c2ccc(C)cc2)cc1`, for which the survival is inactive: 17%.

On to `CC(C)(C)OC(=O)N1CCC(c2c(C(=O)NCc3ccco3)cnn2-c2ccc(F)cc2F)CC1`, for which the survival is inactive: 70%. For the molecule `CCC(=O)Nc1ccc(C)cc1-c1nc2ccccc2n(CC(=O)c2ccc(C)cc2)c1=O`, the survival was inactive: 85%.

`CCOC(=O)c1c(C)c(C(=O)NCc2ccc(Cl)cc2)c(C)n1C`: the survival is inactive: 84%.

On to `COc1ccccc1NC(=O)C1=C(C)Nc2nc(-c3ccco3)nn2C1c1cccc(C)c1` (configuration not stated), for which the survival is inactive: 90%. Take `CCc1ccc(-n2c(=O)c3c(C)c(C(=O)N(C)C)sc3n(CC(=O)Nc3cc(Cl)ccc3C)c2=O)cc1`: the survival was inactive: 129%. Under `CCCCNC(=O)Cn1c(=O)cc(C)c2c(C)nn(-c3cccc(Cl)c3C)c21` stands inactive: 83%; under `Cc1noc2ncnc(N3CCCC(C(=O)Nc4cc(F)ccc4F)C3)c12` (configuration not stated), inactive: 81%. For the molecule `Cc1cc(-n2c(SCc3ccccc3F)nc3[nH]ncc3c2=O)ccc1Cl`, the survival is inactive: 78%. For the molecule `Cc1ccc(-c2noc(-c3ccc(NC4CCCC4)c([N+](=O)[O-])c3)n2)cc1`, the survival was inactive: 114%. Under `Cc1cc(Cl)ccc1NC(=O)C1CCCN1S(=O)(=O)c1ccc2c(c1)CCCC(=O)N2` (configuration not stated) stands inactive: 74%. In the case of `CCc1ccc2c(c1)C1(NN=C(c3ccccc3)S1)C(=O)N2` (configuration not stated) it was inactive: 15%; in that of `CCc1c(C)sc2c1CCN(C(=O)Nc1ccccc1Cl)C2c1ccc(OC)cc1` (configuration not stated), inactive: 78%. Turning to `CC(C)(C)OC(=O)N1CCC(c2nnc(SCc3ccccc3Cl)o2)CC1`, the survival was active: -2%. Under `CS(=O)(=O)c1ncc(N(Cc2ccco2)Cc2cccs2)c(C(=O)Nc2ccccc2F)n1` stands inactive: 77%; under `COc1ccc(Cl)cc1NC(=O)C(C)n1c(=O)cc(C(F)(F)F)c2c(C)nn(C)c21` (configuration not stated), inactive: 127%; under `Cc1ccc(Cn2ccn(Cc3ccc(C)cc3)c(=O)c2=O)cc1`, inactive: 102%.

For `CC1CCc2onc(C(=O)N3CCN(c4ccc(Cl)cc4)CC3)c2C1` (configuration not stated), the survival was inactive: 83%. As to `COc1ccc(N2C(=O)NC(NS(=O)(=O)c3ccc(NC(C)=O)cc3)(C(F)(F)F)C2=O)cc1` (configuration not stated), the survival is inactive: 78%. Regarding `CCOc1ccc(CNC(=O)CCCn2nc(C)c3c(C)n(-c4ccc(C)cc4)nc3c2=O)cc1`, the survival was inactive: 81%. Turning to `CCOC(=O)c1cc2c(=O)n3ccccc3nc2n(CC(C)C)c1=NC(=O)C(C)(C)Oc1ccc(Cl)cc1`, the survival is inactive: 64%. For the molecule `Cc1ccc(C(=O)N2CC(=O)Nc3ccc(Br)cc3C2c2ccc(F)cc2)cc1C` (configuration not stated), the survival is inactive: 84%.

On to `CCc1ccc(NC(=O)Cn2cnc3nc4c(cc3c2=O)CCCC4)cc1`, for which the survival is inactive: 133%.

For the molecule `Cc1ccc(C)c(N2CCN(C(=O)CCc3c(C)nc4c(c3C)c(=O)n(C)c(=O)n4C)CC2)c1`, the survival was inactive: 72%. Take `CCN1CCN(C(=O)Cn2c(-c3cccs3)cc3cc(Cl)ccc32)CC1`: the survival was inactive: 72%. Under `COc1ccc(CNC(=O)Cc2c(C)c3c(O)cc(C)cc3oc2=O)cc1` stands inactive: 77%; under `COc1ccc(C(CNC(=O)c2oc3ccccc3c2C)N2CCCCC2)cc1` (configuration not stated), inactive: 91%; under `CCc1ccc(-n2c3nc(=O)[nH]c(=O)c-3cc3c(C)nn(-c4ccccc4)c32)cc1`, inactive: 77%. Regarding `COc1ccccc1CNC(=O)C1CCN(c2ncnc3c2nc2n3CCCCC2)CC1`, the survival was inactive: 78%. For `CC(C)CCNC(=O)c1c[nH]c2ccc(S(=O)(=O)Nc3cccc(C(F)(F)F)c3)cc2c1=O`, the survival was inactive: 64%. On to `NCc1ccc2[nH]c(=O)[nH]c2c1`, for which the survival is inactive: 104%. `O=C(NCc1ccccc1)C(c1ccccn1)N(C(=O)c1csnn1)C1CC1` (configuration not stated): the survival is inactive: 106%.

`Cc1noc(-c2ccc(N3CCCCC3C)c([N+](=O)[O-])c2)n1` (configuration not stated): the survival is inactive: 116%. Under `COc1cc(Cl)c(C)cc1NC(=O)c1c(C)oc2nc(C)nc(N3CCCC3)c12` stands inactive: 124%; under `O=C1CCCc2cc(S(=O)(=O)N3CCCC(C(=O)NCc4ccccc4Cl)C3)ccc2N1` (configuration not stated), inactive: 69%; under `CCc1nnc(NC(=O)CSc2nccn2Cc2ccccc2)s1`, inactive: 69%. With `O=C(Cn1c(-c2cccs2)cc2ccccc21)NCCCN1CCN(c2cccc(Cl)c2)CC1`, the survival is inactive: 80%. Regarding `CC1CCCN(C(=O)Cc2cccc3ccccc23)C1` (configuration not stated), the survival was inactive: 113%. Under `Cc1ccc(-n2c(=O)c3oc4ccccc4c3n(Cc3ccccc3)c2=O)cc1C` stands inactive: 78%; under `O=C(/C=C/c1ccc(F)cc1)NC(=S)NCc1ccco1`, inactive: 120%; under `Cc1ccc(-c2noc(-c3nnn(CC(=O)Nc4ccc(C)cc4Cl)c3N)n2)cc1`, inactive: 51%. For the molecule `Cc1cc(C)cc(NS(=O)(=O)c2ccc3[nH]cc(C(=O)N4CCCCC4)c(=O)c3c2)c1`, the survival is inactive: 78%. As for `CCC(=O)N1CCc2cc(CNS(=O)(=O)c3ccccc3F)ccc21`, the survival was inactive: 88%. In the case of `CCOC(=O)c1ccc(N2C(=O)CC(N3CCN(c4ccc(O)cc4)CC3)C2=O)cc1` (configuration not stated), the survival was inactive: 102%.

Turning to `O=C(Nc1ccc(-c2nnn(CC(=O)N3CCN(C(=O)c4ccco4)CC3)n2)cc1)c1ccccc1F`, the survival is inactive: 98%.

For the molecule `Cc1ccc(NC(=O)CCc2nc(-c3ccccc3F)no2)c(C)c1`, the survival was inactive: 90%. In the case of `CN1CCCCc2c1nc1ccccc1c2N` it was inactive: 112%. For the molecule `Nc1nnc(CCS(=O)(=O)c2ccc3ccccc3c2)s1`, the survival is inactive: 84%. For the molecule `CCOc1cc2c(cc1OCC)C(CC(=O)OC)N(C(=O)Nc1cc(C)cc(C)c1)CC2` (configuration not stated), the survival is inactive: 72%. As for `COc1cc(C(=O)Nc2sc3c(c2C#N)CCCC3)c(Br)c(OC)c1OC`, the survival is inactive: 76%. Turning to `CCOc1ccccc1CNC(=O)c1ccc2c(c1)N(CC)CCS2`, the survival was inactive: 33%. Under `COc1cccc(CNC(=O)C(Cc2ccccc2)NS(=O)(=O)c2ccc3c(c2)CCN3C(C)=O)c1` (configuration not stated) stands inactive: 75%; under `Cc1ccc(-n2nc(C(=O)NC(C)C)c(=O)n(C)c2=O)cc1`, inactive: 71%.

For the molecule `Cc1cccc(OCC(=O)Nc2nnc(S(=O)(=O)N3CCCCCC3)s2)c1`, the survival is inactive: 51%.

In the case of `CS(=O)(=O)c1ncc(Cl)c(C(=O)N(Cc2ccc(Cl)cc2)Cc2ccco2)n1`, the survival was inactive: 19%. Regarding `Cc1oc(-c2ccccc2Cl)nc1CS(=O)CC(=O)N1CCN(c2cccc(C(F)(F)F)c2)CC1` (configuration not stated), the survival was inactive: 129%.

As for `O=C(O)C1CCCN1c1ncccn1` (configuration not stated), the survival was inactive: 105%. Under `Cn1nnnc1SCCCNCc1cc(Br)ccc1OCc1ccccc1` stands inactive: 84%. As for `Cc1nc2sccn2c(=O)c1S(=O)(=O)Nc1ccc(N2CCN(C)CC2)cc1`, the survival was inactive: 93%. In the case of `NC(=O)c1cccc(S(=O)(=O)N2CCOCC2)c1`, the survival is inactive: 106%. For `COc1ccc(-c2nn3c(=O)cc(CN4CCN(C(=O)Nc5cc(C)ccc5C)CC4)nc3s2)cc1`, the survival was inactive: 125%. As for `COc1cc(OC)c(NC(=O)NCCn2nnc3cc(S(=O)(=O)N(C)C)ccc32)cc1Cl`, the survival was inactive: 63%.

As to `CCOC(=O)c1c(C)[nH]c(C)c1S(=O)(=O)N1CCC(C(=O)NCc2ccc(F)cc2)CC1`, the survival was active: 1%. On to `Cc1cc(-c2ccc(S(=O)(=O)Nc3cccc(C)c3C)s2)on1`, for which the survival is inactive: 134%. Turning to `COc1ccc(-c2c(C#N)c(SCC(=O)Nc3ccc(C)c(C)c3)nc(C)c2C(=O)Nc2ccc(Cl)cc2)cc1`, the survival is inactive: 91%. Under `CCOc1ccc(CCNC(=O)C(CC)n2nc(C)c3c(C)n(-c4ccccc4)nc3c2=O)cc1` (configuration not stated) stands inactive: 73%; under `Cc1cccc(N2CCN(C(=O)c3sc4nc5n(c(=O)c4c3C)CCC5)CC2C)c1` (configuration not stated), inactive: 86%; under `CCCCSCCCNC(=O)C1CCN(Cc2nc(-c3ccc(CC)cc3)oc2C)CC1`, inactive: 51%.

The record behind these values is PubChem BioAssay AID463173 (ICCB-Longwood Screening Facility, Harvard Medical School, 2010).
